The values below come from patent US20240317865A1, “ANTIBODIES AGAINST INTEGRIN ALPHA 11 BETA 1” (MOMENTA PHARMACEUTICALS, INC., priority 2020, published 2024).

For test [1], the target named is T1, α11β1 I Domain (Homo sapiens, UniProt Q9UKX5).
T1 sequence (Q9UKX5 164-345 limits assumed): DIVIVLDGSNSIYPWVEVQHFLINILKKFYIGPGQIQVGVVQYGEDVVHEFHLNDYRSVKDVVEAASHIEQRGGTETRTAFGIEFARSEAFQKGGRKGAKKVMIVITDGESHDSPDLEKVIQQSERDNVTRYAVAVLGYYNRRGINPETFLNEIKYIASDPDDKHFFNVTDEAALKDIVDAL
Kind of test: ELISA binding to in-house generated α11β1 I domain. Set-up: An in-house generated I domain of α11β1 was used; made in house. The note with it: in words. The procedure:
0.25 μg/mL of target antigen (recombinant human or mouse α11β1) was plated in a 96-well plate over night at 4° C. Plates were washed (PBS with 0.1% Tween-20), blocked (PBS with 2% BSA and 0.05% Tween-20) for 1 hour at room temperature and incubated with a range of antibody concentrations for 1 hour at room temperature. Subsequently, plates were washed and incubated with biotinylated anti-rabbit/mouse/human IgG in a 1:1000 dilution buffer and incubated for 1 hour at room temperature. After washing the plates, Streptavidin HRP was added at 1:200 in dilution buffer and incubated for 1 hour at room temperature. Ultra TMB ELISA substrate solution was added and the plates incubated for 5 minutes on a plate shaker. The reaction was stopped by adding stop solution to each well and plates were read at 450 nm.
Data was also collected to determine whether antibodies of interest bind to the I domain of α11β1. An in-house generated I domain of α11β1 was used. […] Mouse antibodies 10-F23, 10-L15, 7-O8, 6-A12, 9-G05 and 9-E16 and rabbit antibodies 7-H12 and 2-D3 were also tested for binding against the in-house generated α11β1 I domain. FIGS. 3A and 3B show graphs illustrating binding data from exemplary mAbs.
Background: An ELISA detects its analyte on a solid surface through an enzyme-linked reagent.

Test [2] concerns the target T2, adhesion of CHO-K1 cells expressing human α11 to rat tail type I collagen (Homo sapiens, UniProt Q9UKX5).
T2 construct: expressed in transfected cells; host or cells: CHO-K1
T2 sequence (Q9UKX5 23-1188): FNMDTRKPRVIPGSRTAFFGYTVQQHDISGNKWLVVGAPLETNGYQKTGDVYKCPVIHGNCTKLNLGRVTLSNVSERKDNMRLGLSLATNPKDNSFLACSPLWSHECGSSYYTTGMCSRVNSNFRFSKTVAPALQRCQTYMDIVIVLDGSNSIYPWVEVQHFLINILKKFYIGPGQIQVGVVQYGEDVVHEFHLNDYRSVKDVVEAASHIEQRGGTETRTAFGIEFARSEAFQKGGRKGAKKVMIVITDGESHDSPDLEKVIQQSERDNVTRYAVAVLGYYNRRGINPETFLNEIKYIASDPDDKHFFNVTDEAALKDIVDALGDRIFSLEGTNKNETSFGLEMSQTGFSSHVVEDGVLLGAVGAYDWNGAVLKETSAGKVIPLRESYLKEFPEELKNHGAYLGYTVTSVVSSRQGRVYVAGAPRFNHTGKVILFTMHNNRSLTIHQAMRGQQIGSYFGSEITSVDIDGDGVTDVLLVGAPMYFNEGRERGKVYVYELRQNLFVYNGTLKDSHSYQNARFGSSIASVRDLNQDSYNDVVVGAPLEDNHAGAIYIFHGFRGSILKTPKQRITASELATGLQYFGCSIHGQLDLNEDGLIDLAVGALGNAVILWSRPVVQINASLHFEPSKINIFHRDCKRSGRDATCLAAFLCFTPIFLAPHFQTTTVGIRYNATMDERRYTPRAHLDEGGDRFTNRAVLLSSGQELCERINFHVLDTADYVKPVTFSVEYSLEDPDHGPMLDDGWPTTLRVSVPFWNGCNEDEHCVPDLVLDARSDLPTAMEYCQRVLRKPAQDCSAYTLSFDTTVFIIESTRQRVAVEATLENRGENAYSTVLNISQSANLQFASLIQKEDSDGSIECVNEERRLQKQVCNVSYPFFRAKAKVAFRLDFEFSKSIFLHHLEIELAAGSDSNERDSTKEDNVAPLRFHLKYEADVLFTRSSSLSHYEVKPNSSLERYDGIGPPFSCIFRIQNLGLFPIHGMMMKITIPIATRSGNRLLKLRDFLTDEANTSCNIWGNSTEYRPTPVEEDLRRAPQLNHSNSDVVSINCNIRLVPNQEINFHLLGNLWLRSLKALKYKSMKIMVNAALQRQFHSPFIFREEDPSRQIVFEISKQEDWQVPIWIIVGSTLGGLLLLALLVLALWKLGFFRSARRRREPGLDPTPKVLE
The experiment in a line: Cell adhesion inhibition (CHO-K1 hu α11 cells to type I collagen, xCelligence). Format: cell-based. Conditions: in words. Here is the method: 0.6×10^6 cells/mL were incubated with each antibody at a range of concentrations for 20 minutes at 37° C. E-Plate VIEW 96 PET plate coated with 100 ng/ml type I collagen or PBS overnight at room temperature was blocked in 3% BSA for 1 house at room temperature. After washing the plate with PBS, cell and antibody mixture was added to the wells and the plate was places into an xCelligence machine. Cell adhesion was recorded over 6 hours. The time point of maximum cell adhesion was used for comparison relative to control.
A CHO-K1 hu α11 cell line was used to assess the ability of mAbs to block α11β1-mediated binding to type I collagen. […] In the “Untreated” condition, cells were plated on type I collagen but no antibody was added and in the “Uncoated” condition, cells were seeded onto BSA-coated wells containing no type I collagen. Statistics were performed using one-way ANOVA followed by Dunnett's multiple comparisons test. […] Therefore, it is possible that these mAbs bind on an α11β1 domain that keeps the integrin in a low or intermediate affinity state. […] Nine human mAbs were also tested for their ability to inhibit the binding of human CHO-α11 cells to type I collagen.

B1: 8-G15: mouse anti-α11β1 mAb; VH SEQ ID NO: 107, VL SEQ ID NO: 108 (antibody, V domains shown)
VH: EVQLQQSGPELVKPGASVRISCKASGYTFTDYYIHWVKQKPGQGLECIGEIYPGTDNTYYSKKFRGKATLTADKSSDTAYMQLSSLTSEDSAVYFCARGDYYRGYFDVWGAGTTVTVSS
VL: DVVMTQTSLTLSVTIGQPASISCKSSQSLLHSNGKTYLNWLLQRPGQSPKFLIYLVSKLESGVPDRFSGSGSGTDFTLKISRVEAEDLGVYYCLQSTHFPWTFGGGTKLEIK
On to B1, for which the “Binding to the I domain of α11β1” value in test [1] is listed as “not found to bind the I-domain”. Also, in test [2], the “Inhibition of cell adhesion to type I collagen” value was “decrease cell adhesion to collagen”.
